Data from publication PMC10726135.
The other results are listed elsewhere or left out. At the low end of the ranking the order means little. The protein was read in a cell extract, so binding may be indirect.

These sequences were tested against T1, HNF4alpha2 (COS-7 nuclear extract) (UniProt P41235) (assay: protein-binding microarray). Conditions: COS-7 nuclear extract on double-stranded Agilent 4x180k PBM; binding buffer, salt, pH and temperature not given; high values mean tight binding; double strand, one strand shown; sequences stand for … in …GCCTAGGGAGATTAGAGTATCGGTCGA.
T1 sequence: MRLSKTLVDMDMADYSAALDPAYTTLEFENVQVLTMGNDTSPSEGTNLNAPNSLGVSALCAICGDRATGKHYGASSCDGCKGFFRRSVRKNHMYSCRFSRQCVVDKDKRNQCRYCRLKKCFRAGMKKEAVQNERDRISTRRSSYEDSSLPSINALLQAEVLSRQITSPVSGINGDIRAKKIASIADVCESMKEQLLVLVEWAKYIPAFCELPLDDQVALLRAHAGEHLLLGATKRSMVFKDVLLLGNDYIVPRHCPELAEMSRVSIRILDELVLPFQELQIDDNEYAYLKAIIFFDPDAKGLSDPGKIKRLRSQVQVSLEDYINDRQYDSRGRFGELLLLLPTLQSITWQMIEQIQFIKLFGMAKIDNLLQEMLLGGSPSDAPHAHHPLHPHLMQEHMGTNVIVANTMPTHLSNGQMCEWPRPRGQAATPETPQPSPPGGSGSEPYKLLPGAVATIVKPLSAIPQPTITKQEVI
For CAGGGAGATTTCCTGGGAGAGAAAAGCAAG, the binding signal (log2 normalized intensity) was -1.12.
Work on CCTTTAGTCTCTAGCCCCGCCCAGATGTCT yielded a binding signal (log2 normalized intensity) of 3.82.
Sequence AAGGCAATATCACTTGTTTGCACAAAGGGT has a binding signal (log2 normalized intensity) of 1.02.
Work on AGGACTTTGGACCGTCTTGTGGATCCTTGG yielded a binding signal (log2 normalized intensity) of 4.73.
With CAGGTTGAGTCCAGCCTGTGGTGGGAAACT the binding signal (log2 normalized intensity) was -0.127.
In the case of GCAGAGTTGGGCAGAAGGTGTTTCAGATGG, the binding signal (log2 normalized intensity) is reported as 0.728.
AAATAAGGGAGGTAAAAGTCCAACAGGGTT was tested, and the binding signal (log2 normalized intensity) was 1.93.
For GAGTTATCTTCCTCCCCCCTTGGCTACATG, the binding signal (log2 normalized intensity) was 4.15.
Work on TTTAACTTTTGGGATCAGCAATGCTCAGCC yielded a binding signal (log2 normalized intensity) of -0.936.
CGGAAGCCTTCCCCGCCCGCAGCCCAGTCT showed a binding signal (log2 normalized intensity) of 4.02.
In the case of CCTACATTCCACCCTCATTTGCTTGACCCG, the binding signal (log2 normalized intensity) is reported as 3.47.
In the case of AGACAAGGCACCAAAGGAATCTACATAACA, the binding signal (log2 normalized intensity) is reported as -1.16.
With GCCAAATGACTCACTCAAGGCAGCTCAGCT the binding signal (log2 normalized intensity) was -0.906.
ACATTCAGGACACTTCTGAAAAAAATATTG was tested, and the binding signal (log2 normalized intensity) was 0.151.
With GGTGGCCGAGCAGGACGCTACCCGCTTGGC the binding signal (log2 normalized intensity) was -1.25.
In the case of AGGGTGACACTGCTCTCTCCAGGGGAGGGT, the binding signal (log2 normalized intensity) is reported as -1.07.
Sequence AACCCCCAAAACTGCCTGATAATCTTATCA has a binding signal (log2 normalized intensity) of 2.47.
Sequence GTGAGGCTGTGATGTTTGCCCATGATCATA has a binding signal (log2 normalized intensity) of 0.597.
In the case of GGCTGTTTCACAAGTTTAGCCAAGCAAACA, the binding signal (log2 normalized intensity) is reported as -0.992.
With GGGGTAAGCAAGGCTCTTAGCAGAAGCCCT the binding signal (log2 normalized intensity) was -1.15.
Work on TAGAACTCAGTGTGAACTCAATGCTGCTGA yielded a binding signal (log2 normalized intensity) of -0.787.
Work on ATAATGTCAAAAATCTTAAGGAGGAGTGCT yielded a binding signal (log2 normalized intensity) of -1.06.
In the case of TTCGTTGAAAGCTGCTTCCCAGTTGCTCTG, the binding signal (log2 normalized intensity) is reported as -1.2.
CATCTTCTTATCTGAGGTTTGACTTTGAGG gave a binding signal (log2 normalized intensity) of 2.27.
Sequence GAAACACATTCTTAGACAACACACCACCTG has a binding signal (log2 normalized intensity) of -1.05.
CCGAGGCCTTGAGCATACAAAACCCCTTAT was tested, and the binding signal (log2 normalized intensity) was 1.57.
TGCGGTAATCCTTACGGCCCTGTGGTGTTC was tested, and the binding signal (log2 normalized intensity) was 1.62.
TGGTGAGTCAGTTCCCCTGCGGACTCTGGA gave a binding signal (log2 normalized intensity) of 2.44.
ACTTATCAGAGGAAATTCAGATCAAAGCAA was tested, and the binding signal (log2 normalized intensity) was -1.15.
In the case of ACGTCTGTTAACCAAGATACTGGGTCAGAG, the binding signal (log2 normalized intensity) is reported as 1.11.
With AGGAGTGTCTTTCTCCTTGAACACAGTGTT the binding signal (log2 normalized intensity) was 1.25.
GCCCTTTGACCTCTCTCTCCTAACTATGGT gave a binding signal (log2 normalized intensity) of 5.51.
GGAATGCTGAAGGGAAGGCTGCCGTCCTCA showed a binding signal (log2 normalized intensity) of -1.14.
AAGCTGAATATTTATCAGATACAGGAGATC showed a binding signal (log2 normalized intensity) of 0.738.
Work on CATTTTGTCTTTTCTCCCCTGACTACCAGC yielded a binding signal (log2 normalized intensity) of 2.14.
Sequence AGTTGGAGAAGAGCAAAGATCATCTGGTGG has a binding signal (log2 normalized intensity) of 1.58.
ACAGGGCTGGGATAACCGAGGCTGACAGCA gave a binding signal (log2 normalized intensity) of -1.04.
For CCCACTTGTATGTCCAAGGGTCACTCGACA, the binding signal (log2 normalized intensity) was 3.48.
AATGAGGACGTGTGTGTTCTGGACTTCTCT was tested, and the binding signal (log2 normalized intensity) was 2.17.
GACCCGAGTGCCCTTTGGCAAACAGGAGCT gave a binding signal (log2 normalized intensity) of 0.391.
ACTAGGAGCCTGCACGCCTGTTCACATTCC was tested, and the binding signal (log2 normalized intensity) was -0.755.
AGGGACCCTTCCTCGGTGGAGTTGACACAG was tested, and the binding signal (log2 normalized intensity) was 1.11.
Sequence GAAATTCAGGCTGAGGTGCTCTCAGATAAG has a binding signal (log2 normalized intensity) of -1.16.
For ACAATGTGAGCAGGTGTGTGGCATCTTGGG, the binding signal (log2 normalized intensity) was 0.785.
With TTAGTGCATAACTTTTGAATCCTCTTTGAG the binding signal (log2 normalized intensity) was -0.77.
TTCTGACCTTTAAGCACCCAGAGCCCCACC gave a binding signal (log2 normalized intensity) of 4.7.
In the case of AAGAATGAAAGCCAAGGCAGATATGAAAGA, the binding signal (log2 normalized intensity) is reported as -1.
TTTTTTCAGGTGTTGCTCTCTTGCCATTCG was tested, and the binding signal (log2 normalized intensity) was 0.156.
TCTCTCTCCTCTCCAGCCCATCCTAAGCCC was tested, and the binding signal (log2 normalized intensity) was 2.85.
Work on TTTAATTCTGAGTTCCAATAGCAAAACCTG yielded a binding signal (log2 normalized intensity) of -1.1.
In the case of CCCACAGTGCCCTCTATTGGCTGTTTAGTA, the binding signal (log2 normalized intensity) is reported as 1.58.
AGCCCTAACCAGGGGTGGGGACCTTTGGGC gave a binding signal (log2 normalized intensity) of 3.12.
Work on CTTTCATACGTTTAACAGTTCCTCCTGGAA yielded a binding signal (log2 normalized intensity) of 1.18.
TCCCCGGGCGGGATGGGGTCACGAGACGGT gave a binding signal (log2 normalized intensity) of 1.72.
Sequence CATTCCAGAAAGACAGCTGCATTTGTCCGG has a binding signal (log2 normalized intensity) of 0.39.
TGTCTTTGGGTGGAGGGGAGGTTATCTTGG showed a binding signal (log2 normalized intensity) of 1.23.
AGTGAAGACTGAAAAGAGATAACTAGATGA gave a binding signal (log2 normalized intensity) of -1.05.
With GACCTAGATGGAATGTTGTGTCTTCCAGTT the binding signal (log2 normalized intensity) was 1.63.
With CCTGTTTGACCTTCGAACCCTTGCCATTTA the binding signal (log2 normalized intensity) was 7.04.
TGAATGCCTAGGTGACAAGGAAAACTACAC gave a binding signal (log2 normalized intensity) of -1.11.
GTGAGTGGACTTTGGTCCTGGTCAGACTTG was tested, and the binding signal (log2 normalized intensity) was 5.76.
GGTCCAGCCTACCCACCCACACCTCCCCTT gave a binding signal (log2 normalized intensity) of 4.58.
For AAAGCCTAAAATATTCACTATCTGATCCTT, the binding signal (log2 normalized intensity) was -0.95.
For ATAAGCTCTGCGCCCTTGGAATATCCTGCC, the binding signal (log2 normalized intensity) was -1.09.
Sequence CCGCTTGGCCCTCTTCCAAGTGTTCTTTAC has a binding signal (log2 normalized intensity) of 1.87.
AAGTTCAGTCGAATTTGGTTACTCGCCTTA showed a binding signal (log2 normalized intensity) of -1.2.
For CCTCATGCCTTATCTACATAGTCCCTGCAC, the binding signal (log2 normalized intensity) was 0.727.
TAGAAGTACTAGATTTGGAACTCAGAGTTT gave a binding signal (log2 normalized intensity) of 0.363.
TAAACCCCTGGAGCACAGAAGGAGGGCGGG showed a binding signal (log2 normalized intensity) of -1.08.
In the case of CAGTCAATTACATGGCAGATGTCTGTGTTC, the binding signal (log2 normalized intensity) is reported as 1.87.
TGCATATCAGCATGGCTGCAGAGAACAGCA gave a binding signal (log2 normalized intensity) of -1.21.
TGGGGAGGTTTGGCTGAGAGGGATAAAAGG gave a binding signal (log2 normalized intensity) of -1.07.
In the case of TGGGGGCCACGCACACCTGGATCTTCCAGG, the binding signal (log2 normalized intensity) is reported as -1.15.
In the case of TGCAACAGTGACCCAAATATGGTCCCTGAC, the binding signal (log2 normalized intensity) is reported as -1.13.
In the case of TCACATACTGTGGACATAAAAAGATAATGC, the binding signal (log2 normalized intensity) is reported as -1.07.
In the case of GATCACTGCCTTGGAGGCACTCCCAGGATA, the binding signal (log2 normalized intensity) is reported as -1.1.
TTGACGCCACCTGAAGGCAGGTGTGGGTTG was tested, and the binding signal (log2 normalized intensity) was 1.41.
CATCAGATCTGGGTGTGCCATTCTTCCAGT showed a binding signal (log2 normalized intensity) of 0.748.
In the case of GATGAGGCACCAACACTTCCCAATCAGAAA, the binding signal (log2 normalized intensity) is reported as -1.22.
CCACGGCAACCTTCCTGGAAACCTTCTCTG gave a binding signal (log2 normalized intensity) of -0.777.
Work on CCAACAGGTGAAGACATGCTGGTGTGTGAT yielded a binding signal (log2 normalized intensity) of 1.54.
Work on TGTCCACCAAGGAGGTGCTGACAGGCCCTC yielded a binding signal (log2 normalized intensity) of -1.17.
With CCATAGAGTCCACCACTGACCTTAGACCCT the binding signal (log2 normalized intensity) was 5.78.
GCCTCTTTATCTCCTCCCCTTGAGACTTTA showed a binding signal (log2 normalized intensity) of 2.85.
For ACAGGGCAAGGAACGGAATGTGTGATAAGG, the binding signal (log2 normalized intensity) was 0.42.
Sequence CTAGGCAGTCCACAGACAAAGGCCCGCTGC has a binding signal (log2 normalized intensity) of -1.1.
In the case of CCGCGCCCAGCGGTTCCGGGCGGCAGCACA, the binding signal (log2 normalized intensity) is reported as -1.2.
TGCATTGTGGTATTCATTCAACTTTGACTT showed a binding signal (log2 normalized intensity) of 2.12.
AATTCATGACTCTCTTATAGGTGTTTATAA was tested, and the binding signal (log2 normalized intensity) was 1.54.
GATGGCCCTCTCCAAGGCGGTGTGGAGGTC showed a binding signal (log2 normalized intensity) of 1.52.
TCCTAGACCTTTGACCTTTATACCTGTACG showed a binding signal (log2 normalized intensity) of 5.75.
Sequence CTGGACTTTGGCTGCAAAATTTGAACAAAA has a binding signal (log2 normalized intensity) of 1.55.
CATCTTTGAAGAGCACAGGGTCAGCAGATC was tested, and the binding signal (log2 normalized intensity) was 1.17.
